# Assay results from article PMC4336329 (PLoS ONE, 2015).
# Hit rate of the full screen: of about 310,000 compounds, about 14,000 (4.5%) showed an effect of 50% or more. The effect is printed as a negative number. This is one part of the list.
# Molecular target: human ether-à-go-go-related gene (hERG) potassium channel (human, UniProt Q12809)
# Test: primary screen, population patch clamp on CHO cells stably expressing hERG
# 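Also: peak tail current of the secondary pulse compared with the same well before compound.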
# Chain of human ether-à-go-go-related gene (hERG) potassium channel (Q12809 whole entry, looked up): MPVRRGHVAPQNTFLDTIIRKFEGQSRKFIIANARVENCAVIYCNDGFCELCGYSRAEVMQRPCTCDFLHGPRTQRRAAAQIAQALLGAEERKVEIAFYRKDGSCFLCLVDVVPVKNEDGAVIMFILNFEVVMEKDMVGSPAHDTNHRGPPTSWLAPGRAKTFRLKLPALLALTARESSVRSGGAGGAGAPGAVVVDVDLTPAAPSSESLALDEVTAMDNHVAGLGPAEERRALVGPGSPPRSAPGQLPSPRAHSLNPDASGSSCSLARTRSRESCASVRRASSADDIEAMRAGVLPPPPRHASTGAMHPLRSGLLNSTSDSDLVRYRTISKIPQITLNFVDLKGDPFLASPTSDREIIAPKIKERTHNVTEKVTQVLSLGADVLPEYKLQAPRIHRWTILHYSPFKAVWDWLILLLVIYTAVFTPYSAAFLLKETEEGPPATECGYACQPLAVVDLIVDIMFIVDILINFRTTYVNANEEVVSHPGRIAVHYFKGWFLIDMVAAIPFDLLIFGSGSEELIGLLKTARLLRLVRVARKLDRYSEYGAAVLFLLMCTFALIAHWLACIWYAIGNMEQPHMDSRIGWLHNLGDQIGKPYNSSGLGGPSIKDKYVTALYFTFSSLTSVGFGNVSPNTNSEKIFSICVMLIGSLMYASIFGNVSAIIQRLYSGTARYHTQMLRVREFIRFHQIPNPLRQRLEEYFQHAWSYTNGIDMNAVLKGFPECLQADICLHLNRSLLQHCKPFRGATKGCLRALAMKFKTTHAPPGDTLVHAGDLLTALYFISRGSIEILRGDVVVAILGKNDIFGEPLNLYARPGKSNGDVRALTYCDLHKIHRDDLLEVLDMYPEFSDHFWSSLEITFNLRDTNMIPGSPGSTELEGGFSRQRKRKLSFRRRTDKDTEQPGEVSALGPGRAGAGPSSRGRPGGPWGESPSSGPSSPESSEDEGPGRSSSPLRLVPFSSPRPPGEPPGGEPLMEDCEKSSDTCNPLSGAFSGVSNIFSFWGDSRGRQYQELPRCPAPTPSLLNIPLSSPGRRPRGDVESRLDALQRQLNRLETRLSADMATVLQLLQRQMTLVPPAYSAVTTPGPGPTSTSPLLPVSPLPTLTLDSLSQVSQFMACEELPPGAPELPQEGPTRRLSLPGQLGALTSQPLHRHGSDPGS
row,Compound,"hERG current change (%, negative = inhibition) at 10uM [%]"
1,c1ccc(-c2ccc(C3CCCN3)cc2)cc1 (stereo not shown),-9.81
2,Cc1noc(C)c1C(=O)N1CCCC(C(=O)c2cccc(C(F)(F)F)c2)C1 (stereo not shown),-22.6
3,COc1ccc(OC)c(NC(=O)CSc2nnc(C3CCCCC3)n2-c2ccccc2)c1,-18.5
4,COCCn1c(=NC(=O)CSCC(=O)N2CCOCC2)sc2cc(C)ccc21,-14.8
5,Cc1cc(C)c2c(c1)/C(=N\N=c1\sc3ccccc3n1C)C(=O)N2,12.3
6,CCOc1ccc(CNC(=O)CCc2cn(C)c3ccccc23)cc1OC,9.22
7,Cc1ccc2c(C)c(C(=O)N3CCN(C4CCS(=O)(=O)C4)CC3)oc2c1C (stereo not shown),-4.49
8,Cc1ccc(C)c(NC(=S)NNC(=S)Nc2ccc(C(C)C)cc2)c1,27.9
9,Cc1cccc2cc3c(N)c(C(=O)N4CCc5ccccc54)sc3nc12,13.5
10,Cc1ccc(-c2nnn(Cc3nc4ccccc4s3)n2)cc1,-4.73
11,COC(=O)C1=CN(Cc2ccc(OC)c(OC)c2)C=C(C(=O)OC)C1c1ccccc1F,7.61
12,CCCn1c(N/N=C(C)\C=C\c2ccccc2)nc2c1c(=O)[nH]c(=O)n2C,-8.82
13,CCCNC(=O)Cn1nc(C(F)(F)F)c2c1CCC2,20
14,COc1ccc(S(=O)(=O)N(CC(=O)NCc2ccco2)c2ccccc2OC)cc1,-25.5
15,O=C(COc1cccc(F)c1)NNC(=O)Cc1ccc(S(=O)(=O)N2CCOCC2)s1,-11.9
16,CN1C[C@@H]2C(c3ccccc3)C3(c4ccccc4)CC2(C3)[C@H]1c1ccccc1 (stereo partly shown),-25.7
17,CCN(CC)S(=O)(=O)c1ccc(N2CCOCC2)c(NC(=O)c2cc(C)cc(C)c2)c1,-19.7
18,Cc1ccc(C(=O)NNC(=O)CSc2nnc3c(n2)[nH]c2ccc(F)cc23)cc1,9.15
19,Nn1c(SCC(=O)Nc2ccc3c(c2)OCO3)nnc1-c1ccc(Cl)cc1,0.302
20,Cc1cccc(NC(=O)C(C)OC(=O)c2ccccc2NS(=O)(=O)c2cc(C)c(C)c([N+](=O)[O-])c2)c1 (stereo not shown),1.74
21,COc1ccc(CCNC(=O)C2CCN(S(=O)(=O)c3cccs3)CC2)cc1OC,-5.23
22,O=C(CCC1CCCCC1)NCCN1C2=NC[C@@H](Cc3ccccc3)N2C[C@H]1Cc1ccc(O)cc1,-69.3

row,Compound,"hERG current change (%, negative = inhibition) at 10uM [%]"
1,COc1ccccc1CNC(=O)CNCC1CCCO1.O=C(O)C(=O)O (stereo not shown),-33.3
2,Cc1nc2c(c3c1[nH]c1ccccc13)C(O)CC(C)(C)C2 (stereo not shown),-7.51
3,COc1ccc(C(O)P(=O)(Oc2ccccc2)Oc2ccccc2)cc1 (stereo not shown),5.78
4,CC(C)CNS(=O)(=O)c1ccc(OCC(=O)Nc2ccc(F)cc2F)cc1,9.76
5,Cc1ccc(-n2c(O)c(C=Nc3ccccc3-c3n[nH]c(=S)[nH]c3=O)c3ccccc3c2=O)c(C)c1,10.6
6,CN(CCOc1ccc(Cl)cc1)CC(O)c1ccccc1.O=C(O)C(=O)O (stereo not shown),-60.4
7,CCn1c(=O)n(CC)c2cc(N3CCCC3)c(NC(=O)c3ccccc3C)cc21,-1.31
8,COc1ccc(C(C)=O)cc1COC(=O)c1ccc(OCc2c(C)noc2C)cc1,3.84
9,O=S1(=O)c2ccccc2N=NN1Cc1ccc(Cl)c(Cl)c1,6.18
10,COc1cccc(C2=CC(c3ccccc3)n3nnnc3N2)c1 (stereo not shown),4.23
11,COc1ccc(-c2nc3ccccc3c(=O)n2CCOc2c(C)cccc2C)cc1,15
12,Cc1ccc(NC(=O)CNC(=O)C2CCCCC2)nc1,12.5
13,COc1ccc(-n2c(=O)c3ccccc3n(Cc3ccccc3F)c2=O)cc1OC,6.17
14,COc1ccccc1N1CCN(CC(O)COc2cccc3ccccc23)CC1.Cl (stereo not shown),-68.3
15,O=C(NCCCNC(=O)c1ccc(F)cc1)c1ccc(F)cc1,7.81
16,COc1ccccc1NS(=O)(=O)/C=C/c1ccccc1,-16.8
17,CN(CC(=O)Nc1ccc(S(=O)(=O)N2CCCC2)cc1)CC(=O)Nc1cccc(F)c1,-23.1
18,O=C(NC(=S)NCC1CCCO1)C(c1ccccc1)c1ccccc1 (stereo not shown),2.82
19,CCOC(=O)/C(C#N)=C/c1cc(C)n(-c2ccccc2)c1C,20.8
20,NC(=O)c1cccc2c1-c1ccccc1/C2=N/NC(N)=S,-2.22
21,CCOC(=O)C1CCCN(CC(O)COc2cccc(C)c2)C1.Cl (stereo not shown),-23.7
